Assay results from PubChem BioAssay AID256 (DTP/NCI, 2004).
Inconclusive results and toxic doses are left out. The calls were made as follows: active = survival T/C of 150% or more; inactive = T/C below 125% in these data.

Tested on: CD2F1 mice, L1210 leukemia ip, survival T/C
Assay: NCI In Vivo Anticancer Drug Screen. Data for tumor model L1210 Leukemia (intraperitoneal) in CD2F1 (CDF1) mice
Details: endpoint: mean survival time, schedule: Q04DX002 (ip), vehicle: saline with Tween-80, higher = longer survival
In short: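 Vehicle-treated tumor-bearing mice served as controls (C) for compound-treated mice (T). Reported figure is T divided by C.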

Measured: T/C

O=C(/C=C/c1ccccc1)Nc1ccc(Cl)cc1
inactive: dose: 100.0 mg/kg/injection 98 % of control | dose: 200.0 mg/kg/injection 98 % of control | dose: 400.0 mg/kg/injection 110 % of control
